This note sets out measurements from the RNAGym collection of RNA variant scans (doi:10.1101/gad.245936.114).

Variants at the background level are over-represented here.

The chains are these.
B1: tRNA (parent)
chain: CUCUCGGUAGCCAAGUUGGUUUAAGGCGCAAGACUUUAAUUUAUCACUACGAAAUCUUGAGAUCGGGCGUUCGACUCGCCCCCGGGAGAUUUUUUCCUCGAGCAA

This data set covers variants of B1. Kind of data set: nonsense suppression (GFP-seq) (ratio to wild type); higher = more function; SUP4oc tRNA, yeast GFP reporter sort-seq. The essentials:
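Nonsense suppression (GFPSEQ) is the median GFP/RFP ratio of each sorting bin, weighted by the variant's estimated share of cells in that bin and expressed relative to the unmutated parent tRNA. Yeast strains carried genome-integrated variants of an ochre-suppressor tRNA from a library with ~3% random mutations, plus a galactose-driven GFP ochre reporter and RFP, and were grown in raffinose/galactose medium containing 80 mg/L adenine. Cells were sorted into GFP/RFP bins, each bin was Illumina-sequenced (phred ≥30), and variants were kept only with ≥100 reads and ≥30 cells.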
On to CUCUCGGUAGCCAAGUUGGUUUAUGGCGCAAAACUUUAAUUUAUCACUACGAAAUCUUGAGAUCGGGCAUUCGAUUCGCCCCCGGGAGAUUUUUUCCUCGAGCAA, for which the nonsense suppression is no more than 0.026.

For CUCUCGGUAGCCCAGUUGGUUUAAGGCGCAAGACUUUAAUUUAUCACUACGAAAUCCUGAGAUCAGGCGUUCGAAUCGCCCCCGGGACAUUUUUUCCUCGAGCAA, the nonsense suppression is no more than 0.026. In the case of CUCUCGGUAGCCAAGAUGGUUUAAGGCGCAAGACUUUAAUUUAUCACUACGAAAUCUUGAGAUCGGGCGUUCGACUCGCCCCCGGCAGAUUUUUUCCUCGAGCAA it was no more than 0.026; in that of CUCUCGGUAGCCAAGUUGGUGUAAGGCGCAACACUUUAAUUUAUCACUACGAAAUCUCGAAAUCGGGCGUUCGACUUGCCCCCGGGAGAUUUUUUCCUCGAGCAA, no more than 0.026; in that of CUCUCGGUAGCCAAGUUGGUUUAAGGCUCAAGAAUUUAAUUUAUCACUACGAAAUCUUGAGAUCGGGCGUUCGACUCGCCCCCGGCAGAUUUUUUCCUCGAGCAA, no more than 0.026. For CUCUCGGUAGCCAAGUUGGUUUAAGGCGCAAGAAUUUAAUUUAUCACUACGAAAUCUUGAGAUCGGGCGUUCGACUCGCCCCCGGGUGAUUUUUUCCUCGAGCAA, the nonsense suppression was no more than 0.026. In the case of CUCUCGGUAGCCAAGGUGGUUUAAGGCGCAAGACUUUAAUUUAUCACUACGAAAUCUUGAGCUCGGGCGUUCGACUCGCCCACGGGAGAUUUUUUCCUCGAGCAA it was no more than 0.026. In the case of CUCUCCGUAACCAAGUUGGUUUAAGGCGCAAGACUUUAAUUUAUCACUACGAAAUCUUGAGAUCGGGCGUUCGACUCGCCCCCGGGAGAUUUUUUCCUCGAGCAA it was no more than 0.026; in that of CUCUCGGUAGCCAAGUUGGAUUAAGGCGCAAGACUUUAAUUUAUCACUACGAAAUCUUGAGAUCGGGCGUUCGACACGCCCCCGGGAGAUUUUUUCCUCGAGCAA, no more than 0.026. CUCUCGGUAGCCAAGUCGGUUUAAGGCGCAAGACUUUAAUUUAUCACUACGAAAUCCUGAGAUCGGGCGUGCGACUCGCCCCCGGGUGAUUUUUUCCUCGAGCAA: the nonsense suppression is no more than 0.026. As for CUCUCGGUACCCAAGUUCGUUUAAGGCGCAAGACUUUAAUUUAUCACUACGAAAUGUUGACAUCGGGCGUUCGACUCGCCCCCGGGAGAUUUUUUCCUCGAGCAA, the nonsense suppression was no more than 0.026. With CUCUCGGUAGCCAAGUUGGUUUAAGGCGCAUGACUUUAAUUUAUCACUACGAAAGCUUGAGGUCGGGCGUUCGACUCGCCCCCGUGAGAUUUUUUCCUCGAGCAA, the nonsense suppression is no more than 0.026.

GUCUCGGUAGCGAAGUUGGUUAAAGGCGCCAGACUUUAAUUUAUCACUACGAAAUCUUGAGAUCGGGCGGUCGACUCGCCCCCGGGAGAUUUUUUCCUCGAGCAA: the nonsense suppression is no more than 0.026. In the case of CUCUCGGUAGCCAAGUUGGUAUUAGGCGCAAGACUUUAAUUUAUCACUACGAAAUCUUGAGAUCGGGCGUUCGACUCGCCCCCGGGAGAUUUUUUCCUCGAGCAA it was no more than 0.026. For CUCUCGGUAGCCAUGCUGGCUUAAGGCGCAAGACUUUAAUUUAUCACUACGAAAUCUUGAGAUCGGGCGUUCGACUCGCCCCCGGGAGAUUUUUUCCUCGAGCAA the value was no more than 0.026; for CUCUCGGUAGCCAAGUUGGUUUAAGGCGCAGGACUUUAAUUUAUCACUACGAAAUCUUGAGAUCGGGCGUUCGACUCGCCCCCGGGGGCUUUUUUCCUCGAGCAA, no more than 0.026.

As to CUCUCGGUAGCCAAGUUGUUUUAAAGCGCAAGACUUUAAUUUAUCACUACGAAACCUUGAGAUCGGGCGUUCGACGUGCCCCCGGGAGAUUUUUUCCUCGAGCAA, the nonsense suppression was no more than 0.026. For CUCUCGGUAGCCAAGUUGGUUUAAGGCGAAAGACAUUAAUUUAUCACUACGAAAUCUUGAGUUCGGGCGUUCGACUCACCCCCGGCAGAUUUUUUCCUCGAGCAA the value was no more than 0.026; for CUCUCGGUAGCCAAGAUGGUUUAAGGCGCAACACUUUAAUUUAUCACUACGAAAUCUUGAGAUCGGGCGUUCGACUCGCCCCCGGGACAUUUUUUCCUCGAGCAA, no more than 0.026. Consider CUCUCGGUAGCCAACUUGGAUUAAGGCGCAAGACUUUAAUUUAUCACUACGAAAUCUUGAGAUCCGGCGUUCGACUCGCCCCCGGGAGAUUUUUUCCUCGAGCAA, for which the nonsense suppression was no more than 0.026. In the case of CUCUCGGUAGCCAAGUUGGUUUAAGGGGCAAGACUUUAAUUUAUCACUACGAAAUCUUGAGAUCGGGCGUUCGACUCGACCCCGGGAGAUUUUUUCCUCGAGCAA it was no more than 0.026; in that of CUGUCGGUAGCCAAGUUGGUUUAAGGCGCAAGACUUUAAUUUAUCACUACGAAAUCAUGAGAUCGGGCGUUCGACUCGCCCCCGGGAGAUUUUUUCCUCGAGCAA, no more than 0.026. In the case of CUCUCGGUAGCCAAAUAGGUUUAAAGCGCAAGACUUUAAUUUAUCACUACGAAAUCUUGAGAUCGGGCGUUCGACUCGUCCCCGGGGGAUUUUUUCCUCGAGCAA it was no more than 0.026. As for CUCUCGGUACCCAAGUUGGUUUAAGGCGCAAGACUUUAAUUUAUCACUACGAAAUCUUGAGAUCGGGCGUUCGACUCGCCCGCGGGAGAUUUUUUCCUCGAGCAA, the nonsense suppression was no more than 0.026. In the case of CUCUCGGUAGCCAAGUUGGUUUAAGGCGAAAGACUUUAAUUUAUCACUACGAAAUCUUGAGAUCGGGCGUUCGACUCGCCCCCGGUAGAUUUUUUCCUCGAGCAA it was no more than 0.026; in that of CUCUCGGUAGCCAAGUUGGUUUAAGUCGCAAGACUUUAAUUUAUCACUACGAAAUCUUGAGAUCGGGCGUUCGACUCCCCCCCGGGAGAUUUUUUCCUCGAGCAA, no more than 0.026. For CUCUCGGUAGUCAAGUUGGUUUAACGCGCAAGACUUUAAUUUAUCACUACGAAAUCUUGAGAUCGGGCGUUCGGCUCGCCCCCGGGAGAUUUUUUCCUCGAGCAA the value was no more than 0.026.
